# From PubChem BioAssay AID504333 (National Center for Advancing Translational Sciences (NCATS), 2011)
# Where “and” joins values, the source holds several entries; their conditions need not be identical. Equal entries are not always repeated. Screen size: about 360,000 compounds; about 16,000 (4.4%) were called active. Inconclusive results, whose numbers are uncertain, are shown with a selection of clear calls. Calls follow the shape of the dose curve; as a rule, active = well fitted inhibition curve with a large enough effect; inconclusive = small, poorly fitted or top-dose-only effect; inactive = no such curve, though single readings can be large or run the other way. Potencies beside an inconclusive call are fits to weak or partial responses and may not hold up.
# Molecular target: Bromodomain adjacent to zinc finger domain protein 2B (Homo sapiens) (UniProt Q9UIF8)
# Assay: qHTS Assay for Inhibitors of BAZ2B; also: nearly all actives have a fitted effect of over 60% in size
# Settings: AlphaScreen BAZ2B-H3K14Ac peptide displacement; series mostly up to 114 µM
# In short: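 In this displacement format the biotinylated H3(5-23) peptide acetylated at Lys14 serves as ligand at 50 nM, with BAZ2B at 50 nM in PBS pH 7.4 containing 0.01% Tween-20. Donor and acceptor beads are 10 ug/mL final.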
# Potency is read from the fitted curve at half-maximal effect; tags tell the direction and shape of the fitted curve.
# UniProt Q9UIF8, sequence (Q9UIF8 whole entry, looked up, the tested form may be a part): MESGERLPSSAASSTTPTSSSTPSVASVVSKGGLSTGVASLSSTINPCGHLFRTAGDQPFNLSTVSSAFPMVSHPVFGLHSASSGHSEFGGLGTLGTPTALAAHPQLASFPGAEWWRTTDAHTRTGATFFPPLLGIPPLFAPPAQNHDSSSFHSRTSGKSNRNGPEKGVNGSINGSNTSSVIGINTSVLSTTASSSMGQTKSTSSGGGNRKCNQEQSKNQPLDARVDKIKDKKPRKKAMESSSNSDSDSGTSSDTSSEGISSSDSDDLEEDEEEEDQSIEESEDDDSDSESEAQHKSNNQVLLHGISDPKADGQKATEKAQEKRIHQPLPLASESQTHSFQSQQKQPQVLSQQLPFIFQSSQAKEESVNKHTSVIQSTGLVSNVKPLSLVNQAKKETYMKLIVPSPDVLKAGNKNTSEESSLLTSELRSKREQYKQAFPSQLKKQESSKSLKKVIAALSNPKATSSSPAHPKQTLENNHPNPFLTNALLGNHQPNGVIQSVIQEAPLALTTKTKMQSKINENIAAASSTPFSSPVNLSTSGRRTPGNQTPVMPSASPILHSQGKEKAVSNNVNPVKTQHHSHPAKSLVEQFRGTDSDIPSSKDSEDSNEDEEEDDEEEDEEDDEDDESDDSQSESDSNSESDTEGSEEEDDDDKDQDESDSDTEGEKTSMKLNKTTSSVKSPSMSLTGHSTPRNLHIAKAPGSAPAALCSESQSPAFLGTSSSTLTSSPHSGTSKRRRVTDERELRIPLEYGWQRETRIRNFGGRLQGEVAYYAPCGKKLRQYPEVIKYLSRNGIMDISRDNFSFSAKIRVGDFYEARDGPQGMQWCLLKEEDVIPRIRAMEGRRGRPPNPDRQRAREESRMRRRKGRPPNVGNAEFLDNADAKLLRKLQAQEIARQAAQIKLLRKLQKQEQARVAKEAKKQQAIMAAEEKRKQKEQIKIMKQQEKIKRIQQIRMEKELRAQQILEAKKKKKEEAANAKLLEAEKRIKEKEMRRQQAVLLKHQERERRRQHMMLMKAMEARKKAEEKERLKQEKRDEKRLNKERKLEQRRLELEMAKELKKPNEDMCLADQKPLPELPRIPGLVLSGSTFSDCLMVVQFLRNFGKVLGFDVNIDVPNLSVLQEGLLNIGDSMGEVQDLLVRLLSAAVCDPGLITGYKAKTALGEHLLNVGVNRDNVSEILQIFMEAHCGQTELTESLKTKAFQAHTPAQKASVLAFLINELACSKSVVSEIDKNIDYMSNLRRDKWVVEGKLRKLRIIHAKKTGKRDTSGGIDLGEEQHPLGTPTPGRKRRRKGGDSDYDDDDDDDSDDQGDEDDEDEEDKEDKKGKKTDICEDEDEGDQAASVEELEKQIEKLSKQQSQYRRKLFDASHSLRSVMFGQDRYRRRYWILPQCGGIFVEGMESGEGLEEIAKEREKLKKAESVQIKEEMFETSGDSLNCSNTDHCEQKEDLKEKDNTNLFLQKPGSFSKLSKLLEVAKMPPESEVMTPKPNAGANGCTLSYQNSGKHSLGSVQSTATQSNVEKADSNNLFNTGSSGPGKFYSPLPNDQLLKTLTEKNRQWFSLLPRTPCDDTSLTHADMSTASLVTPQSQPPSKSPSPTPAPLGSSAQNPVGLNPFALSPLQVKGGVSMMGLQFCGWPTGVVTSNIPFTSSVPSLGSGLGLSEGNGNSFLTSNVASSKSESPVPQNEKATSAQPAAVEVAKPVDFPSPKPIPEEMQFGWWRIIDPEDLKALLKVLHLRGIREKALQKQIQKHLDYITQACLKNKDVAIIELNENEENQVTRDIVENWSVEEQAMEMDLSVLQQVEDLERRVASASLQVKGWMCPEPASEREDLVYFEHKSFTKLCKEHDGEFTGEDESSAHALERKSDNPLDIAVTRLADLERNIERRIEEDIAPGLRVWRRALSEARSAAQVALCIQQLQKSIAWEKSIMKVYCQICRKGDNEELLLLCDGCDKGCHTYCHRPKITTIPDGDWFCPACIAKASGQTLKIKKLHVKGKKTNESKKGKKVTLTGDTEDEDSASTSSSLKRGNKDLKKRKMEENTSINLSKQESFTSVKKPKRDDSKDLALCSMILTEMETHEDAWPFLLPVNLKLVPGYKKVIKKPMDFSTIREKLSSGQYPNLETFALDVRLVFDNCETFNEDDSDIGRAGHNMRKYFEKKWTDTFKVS
row,SMILES,Potency
1,CCOC(=O)c1cc(-c2ccc(/C=C3/C(=O)NC(=O)C(C#N)=C3C)o2)ccc1Cl,active: 50.1 µM
2,CC1(C)Cc2ccccc2C(CSc2ccccc2C(=O)O)=N1,active: 50.1 µM
3,COc1ccccc1N(CC(=O)NC1CC2CCC1C2)S(=O)(=O)c1ccc(C)cc1 (stereo not drawn),inactive
4,CCOc1ccccc1N1CCN(C(=O)C2c3ccccc3Oc3ccccc32)CC1,"inconclusive: 35.5 µM [inhibitor, full curve, poor fit]"
5,COc1ccc(NCc2nn(CC(=O)c3ccc(Br)cc3)c3[n+]2CCCCC3)cc1,active: 35.5 µM
6,C#CCOCCOCCOCCNc1nc(N2CCN(C(=O)CCCCCCCCCCNC(=O)[C@H]([C@@H](C)CC)n3cc(CCCCCN)nn3)CC2)nc(N2CCN(C(=O)CCCCCCCCCCNC(=O)[C@H]([C@@H](C)CC)n3cc(CCCCN=C(N)N)nn3)CC2)n1,active: 56.2 µM
7,CC(=O)NC(=S)Nc1ccc(-c2nc3ccc(C)cc3s2)cc1,inactive
8,COc1ccc(N2CCN(C(=O)Nc3cn(CC(C)C)c(=O)c4ccccc34)CC2)cc1,inactive
9,COc1ccc(/C=C/C(=O)Nc2ccc(C(N)=O)cc2)cc1OC,inactive
10,CCN(CC)S(=O)(=O)c1ccc(C(=O)NCC2(N3CCOCC3)CCCCC2)cc1,inactive
11,COc1ccccc1NC(=O)CSc1nc2sc3c(c2c(=O)n1-c1ccccc1)CCN(C)C3,"inconclusive: 50.1 µM [inhibitor, partial curve]"
12,O=C(CSc1nnc(SCc2cccc3ccccc23)s1)N=Nc1c(O)[nH]c2ccccc12,active: 50.1 µM
13,C[C@@H](O)Cc1cn(CC(=O)NCCCCCCCCCCC(=O)N2CCNCC2)nn1,"inconclusive: 89.1 µM [inhibitor, single point]"
14,COc1ccc(CNC(=O)C2CCN(C(=O)c3sccc3-n3cccc3)CC2)cc1,"inconclusive: 56.2 µM [inhibitor, partial curve]"
15,CCc1ccc(C(=O)O)cc1,inactive
16,CCN1C(=NCc2ccc(OC)cc2)N[C@@H](c2ccccc2)C(C(=O)OC)=C1C,"inconclusive: 89.1 µM [inhibitor, single point] and inconclusive: 56.2 µM [inhibitor, partial curve]"
17,Cc1ccc(Cn2ccnc2SCC(=O)NCc2ccccc2)cc1,"inconclusive: 56.2 µM [inhibitor, partial curve]"
18,Cc1sc2ncnc(N(C)CCc3ccccn3)c2c1C,active: 25.1 µM
19,Cc1cccc(C)c1NC(=O)CN(C)C(=O)c1ccc(-c2cccc(C(F)(F)F)c2)o1,"inconclusive: 79.4 µM [inhibitor, single point]"
20,Cc1cccnc1NC(=O)Nc1cccc2ccccc12,inactive
21,CCOC(=O)c1c(C)oc2ncnc(Nc3cccc(C(F)(F)F)c3)c12,inactive
22,COc1cc2c(cc1OC)-c1cc(NC3CCCCCCC3)nc(=O)n1CC2,inactive
23,O=C(CSc1nc(O)c(-c2ccccc2)c(=O)[nH]1)N1CCOCC1,"inconclusive: 89.1 µM [inhibitor, single point]"
24,Cc1nn(CCc2nc(-c3ccco3)cs2)c2[nH]c(=O)cc(C(F)(F)F)c12,"inconclusive: 89.1 µM [inhibitor, single point]"
25,Cc1ccc(C(=O)Nc2ccccc2N2CCCC2)cc1,"inconclusive: 70.8 µM [inhibitor, single point]"

row,SMILES,Potency
1,O=C(c1cccc(F)c1)N1CCN(Cc2ccco2)CC1,active: 50.1 µM
2,COCCCNC(=S)N/N=C/c1ccc(OC)cc1,inactive
3,CCOC(=O)c1c(NC(=O)Cc2coc3ccc(CC)cc23)sc2c1CCC2,"inconclusive: 15.8 µM [inhibitor, full curve, poor fit]"
4,O=C(Nc1nc(-c2ccccn2)cs1)C1CC1,active: 50.1 µM
5,Cc1cc(N(CCO)CCO)ccc1N=Nc1cc(F)ccc1F,active: 22.4 µM
6,CC(=O)Nc1ccc(Nc2ccc3c4c(cc(=O)n3C)-c3ccccc3C(=O)c24)cc1,"inconclusive: 35.5 µM [inhibitor, partial curve]"
7,COC(=O)CC1C(=O)NCCN1C(=O)c1cc([N+](=O)[O-])ccc1Cl (stereo not drawn),"inconclusive: 39.8 µM [inhibitor, single point]"
8,COc1ccccc1N1CCN(C(=O)c2cc3c(=O)n(Cc4cccs4)ccc3nc2C)CC1,"inconclusive: 89.1 µM [inhibitor, single point]"
9,COc1ccc(N2CCN(CCCNC(=O)c3c(C)nn(-c4ccc(F)cc4)c3-n3cccc3)CC2)cc1,active: 50.1 µM
10,COc1ccc(S(=O)(=O)N(CC(=O)NC(C)c2ccccc2)c2ccc(C)cc2)cc1OC (stereo not drawn),inactive
11,CCOC(=O)C1CCN(CC(C)(C)NS(=O)(=O)c2ccc(Cl)cc2)CC1,active: 50.1 µM
12,CCn1c(=O)n(CC)c2cc(N3CCCC3)c(NC(=O)c3ccc(C)cc3)cc21,"inconclusive: 39.8 µM [inhibitor, partial curve]"
13,O=C(CCCCCn1c(=O)[nH]c2ccccc2c1=O)NCCc1c[nH]c2ccccc12,"inconclusive: 79.4 µM [inhibitor, single point]"
14,COc1ccc(/C=C/c2nc(C#N)c(N3CCCCC3)o2)cc1OC,"inconclusive: 39.8 µM [inhibitor, partial curve]"
15,CC(=O)Nc1ccc(NC(=O)CC2Nc3cccc4cccc(c34)NC2=O)cc1 (stereo not drawn),inactive
16,CCC(=O)N1CCc2cc(Br)cc(S(=O)(=O)N3CCCC(C(=O)NCc4ccc(C)cc4)C3)c21 (stereo not drawn),inactive
17,O=C(NCCCn1ccnc1)C(=O)NCC(c1ccco1)N1CCN(c2ccccc2)CC1 (stereo not drawn),active: 56.2 µM
18,COc1ccc(Cl)cc1S(=O)(=O)NC(C)C(=O)NCc1ccncc1 (stereo not drawn),inactive
19,CN(C)C(=O)C1C2NC(=S)N(c3ccc(Cl)cc3)C1(C)Oc1ccc(Cl)cc12 (stereo not drawn),"inconclusive: 79.4 µM [inhibitor, partial curve]"
20,CCOC(=O)c1c(C)n(-c2ccc(C)cc2)c2ccc(OCC(O)CNCCCO)cc12 (stereo not drawn),"inconclusive: 10 µM [inhibitor, partial curve]"
21,Cc1cccc(NC(=O)CSc2cn(CC(=O)N3CCOCC3)c3ccccc23)c1C,"inconclusive: 89.1 µM [inhibitor, single point]"
22,CC(=O)N1CCCc2ccc(NC(=O)c3ccc(OC(C)C)cc3)cc21,inactive
23,Cc1ccc(S(=O)(=O)Nc2cc(S(=O)(=O)N3CCOCC3)ccc2NCC2CCCO2)cc1 (stereo not drawn),inactive
24,COCCN1C(=O)C(=O)/C(=C(/O)c2cccc(OC)c2)C1c1ccco1 (stereo not drawn),active: 79.4 µM
25,CNC(=O)c1ccc(-c2sc3nc(N4CCOCC4)c4c(c3c2N)CCCC4)o1,"inconclusive: 89.1 µM [inhibitor, single point]"

row,SMILES,Potency
1,CC(N=C1NS(=O)(=O)c2ccccc21)C(=O)Nc1ccc(F)cc1Cl (stereo not drawn),inactive
2,O=[N+]([O-])c1cc([N+](=O)[O-])c(Oc2ccc(F)cc2)cc1NN1CCCCC1,"inconclusive: 8.91 µM [inhibitor, full curve]"
3,O=C1N=c2ccccc2=C1c1sc(=S)n(CC2CCCO2)c1O (stereo not drawn),"inconclusive: 31.6 µM [inhibitor, single point]"
4,Cc1cc(C(=O)CSc2nc(N)cc(N)n2)c(C)n1-c1cccc(F)c1,"inconclusive: 50.1 µM [inhibitor, partial curve]"
5,COc1ccc(OC)c(CCNC(=O)c2nc(-c3ccc(Cl)cc3)n3c2CCCCC3)c1,active: 15.8 µM
6,O=c1c2ccccc2nc(SCc2cn3ccsc3n2)n1-c1ccccc1F,"inconclusive: 79.4 µM [inhibitor, single point]"
7,C(=N\N1CCN(c2ccccn2)CC1)/C1=C(N2CCOCC2)C(=C/c2ccccc2)/CC1,"inconclusive: 25.1 µM [inhibitor, partial curve]"
8,CCOC(=O)C1CN(c2cc3c(cc2F)c(=O)c(C(=O)O)cn3CC)OC1C(=O)OCC (stereo not drawn),"inconclusive: 89.1 µM [inhibitor, single point]"
9,CCCCN(C(=O)c1cc(-c2ccco2)nc2ccccc12)c1c(N)n(CCC)c(=O)[nH]c1=O,"inconclusive: 89.1 µM [inhibitor, single point]"
10,CC(=O)NC(=S)Nc1cccc([N+](=O)[O-])c1,inactive
11,OCCN1CCN(CC(O)COC(c2ccc(F)cc2)c2ccc(F)cc2)CC1 (stereo not drawn),active: 39.8 µM
12,CN(C)CCCNc1oc(/C=C/c2cccs2)nc1S(=O)(=O)c1ccccc1,"inconclusive: 56.2 µM [inhibitor, single point]"
13,Cn1c(=O)n(C)c2cc(CNc3ccc(N4CCOCC4)c(C(=O)O)c3)ccc21,"inconclusive: 79.4 µM [inhibitor, single point]"
14,Cc1cc(C)cc(NC(=O)Cn2nnc(C(=O)NCc3ccccc3Cl)c2N)c1,inactive
15,Cc1ccc(CN2CCN(/N=C\c3cccc([N+](=O)[O-])c3)CC2)cc1,active: 28.2 µM
16,CCCCSc1nc2c(c(=O)[nH]c(=O)n2C)n1CCc1ccccc1,inactive
17,N#C/C(=N\Nc1ccc(Cl)cc1)C(=O)c1ccsc1,active: 25.1 µM
18,S=C(NCc1ccco1)Nc1ccc(Cl)cc1Cl,"inconclusive: 70.8 µM [inhibitor, single point]"
19,CNC(=O)Cn1nc(C)c2ccccc2c1=O,inactive
20,c1ccc2c(C[n+]3csc4ccccc43)cccc2c1,active: 56.2 µM
21,O=C(NNC1=NCCCCC1)c1ccccc1,inactive
22,O=Cc1ccc(-c2ccc([N+](=O)[O-])cc2Cl)o1,"inconclusive: 35.5 µM [inhibitor, partial curve]"
23,CCC(C)Nc1nc(SC(C(C)=O)C(C)=O)nc(N(C)C)n1 (stereo not drawn),"inconclusive: 89.1 µM [inhibitor, single point]"
